Our source for the activity change, negative = inhibition values is PubChem BioAssay AID1745853 (National Center for Advancing Translational Sciences (NCATS), 2022).

What all share (test): Primary Screen for Target Class Profiling of Small Molecule Inhibitors of Methyltransferases
Assay [1] concerns the target Glycine N-methyltransferase (Homo sapiens) (UniProt Q14749). Conditions: purified enzyme, MTase-Glo SAH luminescence; measured here: GNMT inhibition; at 40 µM; stronger effect = lower value. An excerpt:
(§1) PI: Matthew D. Hall Ph.D. and Quinlin M. Hanson Ph.D.
(§2) National Center for Advancing Translational Sciences (NCATS)
(§3) National Institute of Health (NIH), Rockville, MD
(§4) Target class profiling (TCP) is a chemical biology approach amenable to investigating understudied biological targets. TCP is achieved by developing a generalizable assay platform and applying it to screen a curated set of compound libraries against representative members of a target class. Small molecule methyltransferases (SMMTase) are a subclass of methyltransferase that act on metabolites to modulate signaling pathways, metabolize xenobiotics, or balance the available methyl pool. We screened four curated libraries totaling 27,574 unique compounds against the SMMTases nicotinamide N-methyltransferase (NNMT), phenylethanolamine N-methyltransferase (PNMT), histamine N-methyltransferase (HNMT), glycine N-methyltransferase (GNMT), catechol O-methyltransferase (COMT), and guanidinoacetate N-methyltransferase (GAMT). The data generated by this TCP can be leveraged for informed tool molecule development. For example, in the associated publication we identified a chemotype of HNMT-selective inhibitors. Additionally, we identified a putative SMMTase-selective inhibitor with potential as a tool molecule for studying broader methyltransferase biology.
(§5) High-through put screening assays were developed at the National Center for Advancing Translational Science (NCATS) for the enzymes NNMT, PNMT, HNMT, GNMT, COMT, and GAMT. Enzymatic activity was measured as a function of SAM cofactor conversion using the MTase Glo kit (Promega) for all enzymes. All assays were performed in 1536-well format with substrates and SAM concentrations at KM values. Enzyme concentration and assay timing were optimized for 10-20% SAM conversion. Initial screening of 27,574 compounds was done as single-point assays using the highest compound concentration (40 uM). […] These compounds were replated in 11-point dose response and assayed against NNMT, PNMT, HNMT, GNMT, COMT, GAMT, and a counter-assay. The IC50 and efficacy (maximal response) values were determined for each dose-response curve. These values are also accounted for in the area under the curve (AUC) values.
(§6) PROTOCOL TABLE (as described by Inglese J, Shamu CE and Guy RK. 2007)
(§7) SEQUENCE No. (e.g., 1, 2, 3, etc.); […] (e.g., Cells, Incubation, Reagent, etc.); VALUE; DESCRIPTION.
(§8) 1; Reagent; 2 uL; SMMTase Enzyme (2x) in reaction buffer, columns 1- 48.
(§9) 2; Reagent; 1 uL; SAM (4x) in reaction buffer, columns 1-48.
(§10) 3; Controls; 23 nL; DMSO in column 4; sinefungin in DMSO (0 uM - 40 uM) in 7-point 1:2 dilution series (n = 2) in column 2.
(§11) 4; Compounds; 23 nL; Columns 5-48.
(§12) 5; Reagent; 1 uL; Substrate (4x) in reaction buffer, columns 2-48.
(§13) 6; Time; 20-30 min; Incubation.
(§14) 7; Reagent; 1 uL; MTase-Glo reagent (5X), columns 1-48.
(§15) 8; Time; 30 min; Incubation.
(§16) 9; Reagent; 5 uL; MTase-Glo Detection reagent, columns 1-48.
(§17) 10; Time; 30 min; Incubation, luminescence evolution.
(§18) 11; Detection; Luminescence; ViewLux uHTS Microplate Imager (PerkinElmer).
(§19) NOTES (numbers refer to Sequence numbers above)
(§20) 1, 2, 5. White Medium Binding Greiner 1536-well plates (Cat #789175-F, Greiner Bio-One, Monroe, NC); Reaction buffer: 50 mM Tris, pH 8.0, 3 mM MgCl2, 1 mM EDTA, 50 mM NaCl, 1 mM DTT, and 0.1 mg/mL BSA. Evaporation was prevented by covering assay plates with metal lids containing holes to allow gas diffusion.
(§21) 1. Six SMMTase were profiled: HNMT, GNMT, PNMT, COMT, NNMT, GAMT
(§22) 5. The corresponding substrate was used for each enzyme: HNMT - 5.3 uM Histamine; GNMT - >500 uM Glycine; PNMT - 16.2 uM Norephinephrine; COMT - 13.7 uM Norephinephrine; NNMT - 3.8 uM Nicotinamide; GAMT - 2.5 uM Guanidinoacetate.6, 8, 10. Room temperature
(§23) 6. Final reaction conditions: 10 nM COMT, 5 uM SAM, 15 uM norepinephrine, 50 mM Tris, pH 8.0, 3 mM MgCl2, 1 mM EDTA, 50 mM NaCl, 1 mM DTT, and 0.1 mg/mL BSA; refer to tables 2 and S1 for specific timing.
8. […]

For assay [2], the target named is Guanidinoacetate N-methyltransferase (Homo sapiens) (UniProt Q14353). The settings on record: purified enzyme, MTase-Glo SAH luminescence; measured here: GAMT inhibition; at 40 µM; stronger effect = lower value.
Description: as §1, §2, §3, §4, §5, §6, §7, §8, §9, §10, §11, §12, §13, §14, §15, §16, §17, §18, §19, §20, §21, §22, §23
8. […]

The target of assay [3] is Histamine N-methyltransferase (Homo sapiens) (UniProt P50135). Conditions: purified enzyme, MTase-Glo SAH luminescence; measured here: HNMT inhibition; at 40 µM; stronger effect = lower value.
Description: as §1, §2, §3, §4, §5, §6, §7, §8, §9, §10, §11, §12, §13, §14, §15, §16, §17, §18, §19, §20, §21, §22, §23
8. […]

The target in assay [4] is Nicotinamide N-methyltransferase (Homo sapiens) (UniProt P40261). Conditions: purified enzyme, MTase-Glo SAH luminescence; measured here: NNMT inhibition; at 40 µM; stronger effect = lower value.
Description: as §1, §2, §3, §4, §5, §6, §7, §8, §9, §10, §11, §12, §13, §14, §15, §16, §17, §18, §19, §20, §21, §22, §23
8. […]

Assay [5] concerns the target Phenylethanolamine N-methyltransferase (Homo sapiens) (UniProt P11086). The settings on record: purified enzyme, MTase-Glo SAH luminescence; measured here: PNMT inhibition; at 40 µM; stronger effect = lower value.
Description: as §1, §2, §3, §4, §5, §6, §7, §8, §9, §10, §11, §12, §13, §14, §15, §16, §17, §18, §19, §20, §21, §22, §23
8. […]

The list shows a part of the results. Shown are side measurements of this screen, not its main read-out; they come without a call. Peptide text beside a SMILES is read from it.
% is scaled to controls: 0 for no effect and ±100 for the full control effect.

Take `Cc1ccc(CCNC(=O)c2cc3n(n2)CC(C)(C(=O)NCc2ccc(F)cc2)N(C)C3=O)cc1` (stereo not given): the activity change, negative = inhibition in assay [1] was 2.74%; in assay [2], 0%; in assay [3], 1.36%; in assay [4] it was 4.09%; in assay [5], -1.92%.
Taken in the same sequence, the figures for `COc1ccc(-c2cc3n(n2)CC(C)(C(=O)NC2CCCCC2)N(C(C)c2ccccc2)C3=O)cc1` (stereo not given) were -5.56%, -0.8%, -1.53%, -2.93% and -4.11%.
In the same order, the values of `CC1(C(=O)NC2CCCCC2)Cn2c(cc3sccc32)C(=O)N1CCN1CCCCCC1` (stereo not given) are 6.43%, -7.47%, -16.3%, 1.44% and 2.35%.
In the same order, the values of `O=C(CCc1nnc2n(Cc3ccccc3)c(=O)c3ccccc3n12)N1CCN(C2CCCCC2)CC1` are -12%, 4.63%, -12.1%, 2.99% and -5.02%.
With `Cn1nc(C2CCCNC2)c2c(C(=O)NC3CC3)cc(C3CC3)nc21` (stereo not given), the activity change, negative = inhibition in assay [1] was -5.6%; in assay [2] it was -10.7%; in assay [3] it was -4.33%; in assay [4] it was -12.3%; in assay [5], 3.52%.
As to `O=C1CCN(C(=O)C2(c3ccccc3)CC2)CCCCCCN1`, the activity change, negative = inhibition in assay [1] is 2.39%; in assay [2] it was 0.434%; in assay [3], 4.28%; in assay [4], -1.42%; in assay [5] it was 4.31%.
In the same order, the values of `Cc1ccc(Cn2c(=O)c3ccccc3n3c(=O)n(CC(=O)Nc4cccc(F)c4)nc23)cc1` are 5.82%, 0%, 9.42%, 3.21% and 4.7%.
`COCC1CN(Cc2ccc(C(C)C)cc2)CC12CCNCC2` (stereo not given): the activity change, negative = inhibition in assay [1] was -2.27%; in assay [2], 0.661%; in assay [3], -8.81%; in assay [4] it was -2.14%; in assay [5], 4.96%.
Taken in the same sequence, the figures for `COc1ccc(C(=O)N2CCC(c3ncc(C)n3C(C)C)C2)cc1` (stereo not given) were -2.38%, -1.32%, -4.1%, -7.43% and -2.1%.
In the same order, the values of `NC(=O)c1cccc(-c2cc(O)cc(OC(=O)NC3CCCCC3)c2)c1` are -12.6%, -8.04%, 10.4%, -12.3% and 2.63%.
Turning to `N[C@H](CO)C(=O)O`, the activity change, negative = inhibition in assay [1] is 3.77%; in assay [2] it was 12.3%; in assay [3] it was 5.46%; in assay [4], -0.498%; in assay [5] it was 9.49%.
In the same order, the values of `O=C(NCCNc1cccnc1)C1CCC(=O)N(C2CC2)C1` (stereo not given) are -48.9%, -29.8%, -4.55%, -6.47% and -33.5%.
In the same order, the values of `O=C(O)Cc1cccc(-c2cc(CCCCCCc3ccc(O[C@H]4O[C@H](CO)[C@@H](O)[C@H](O)[C@@H]4O)c(-c4cccc(CC(=O)O)c4)c3)ccc2O[C@H]2O[C@H](CO)[C@@H](O)[C@H](O)[C@@H]2O)c1` are 6.89%, 4.12%, 11.5%, -1.9% and 7.5%.
Consider `COc1ccc(N2CCN(S(=O)(=O)c3ccc4[nH]c(=O)[nH]c4c3)CC2)cc1`, for which the activity change, negative = inhibition in assay [1] was 4.42%; in assay [2] it was 1.42%; in assay [3], 0.182%; in assay [4], -5.26%; in assay [5], 2.42%.
`Cn1c(=O)c2ccc(C(=O)NC3CCCCC3)cc2n2c(=O)n(CC(=O)NC3CCCCC3)nc12`: the activity change, negative = inhibition in assay [1] was -2.06%; in assay [2], -2.81%; in assay [3], -2.1%; in assay [4] it was -1.28%; in assay [5], -5.64%.
In the same order, the values of `CC(C)(Oc1nn(CCN2CCOCC2)c2ccccc12)C(=O)NCc1ccncc1` are -2.56%, -8.89%, -0.437%, -10.5% and -7.41%.
Taken in the same sequence, the figures for `CC(C)C1NC(=O)CNC(=O)C2CCCN2C(=O)C(Cc2c[nH]c3ccccc23)NC(=O)CNC(=O)C(Cc2ccc(O)cc2)NC(=O)CNC1=O` (stereo not given) (cyclo(GVGYGWP); configuration not given here) were 7.97%, 6.78%, 13.3%, -7.08% and 9.4%.
Taken in the same sequence, the figures for `c1ccc(CCN(Cc2ccccc2)[C@H]2C[C@H]3CCOC[C@@]3(c3ccccc3)C2)cc1` were -3.12%, -0.255%, -2.42%, -3.41% and -2.85%.
Consider `COCCCNC(=O)C1(C)Cn2nc(-c3ccccc3)cc2C(=O)N1c1ccc(Cl)cc1C` (stereo not given), for which the activity change, negative = inhibition in assay [1] is 2.32%; in assay [2] it was 3.31%; in assay [3], 3.07%; in assay [4] it was 2.94%; in assay [5], -0.263%.
In the same order, the values of `NC(Cc1cccc(-c2ccccc2CP(=O)(O)O)c1)C(=O)O` (stereo not given) are 3.02%, 10.4%, 4.12%, 0.599% and 6.8%.
In the same order, the values of `CNC(=O)C1(N2CCC[C@H]2C(=O)N(C)Cc2cccnc2)CCOCC1` are -3.84%, -10.9%, -1.11%, -11.1% and 6.58%.
In the same order, the values of `CCOc1ccc(C2c3cccn3-c3sc4c(c3CN2C(=O)Nc2ccc(F)cc2)CCCC4)cc1` (stereo not given) are 0.531%, 1.18%, 3.48%, 6.26% and 9.82%.
For `COCCNc1nc2c(S(=O)(=O)c3ccccc3)nnn2c2ccc(Cl)cc12`, the activity change, negative = inhibition in assay [1] was -6.75%; in assay [2], 0.129%; in assay [3] it was 5.89%; in assay [4], -1.74%; in assay [5], -1.56%.
Turning to `COc1ccccc1CNC(=O)c1ccc2c(=O)nc3c(-c4cccc(F)c4)n[nH]n3c2c1`, the activity change, negative = inhibition in assay [1] was -9.13%; in assay [2], 4.41%; in assay [3] it was -4.88%; in assay [4], -10.3%; in assay [5], -4.78%.
Taken in the same sequence, the figures for `C=C1C(O)C(OC(=O)c2ccccc2)C2C(C)(C(=O)O)CCCC2(C)C1CC/C(C)=C\CO` (stereo not given) were -6.18%, 6.96%, 2.57%, -12.1% and -0.145%.
Taken in the same sequence, the figures for `CC(C)c1noc(-c2cn(C3CCN(C(=O)c4ccc(Cl)s4)C3)nn2)n1` (stereo not given) were -5.97%, -4.6%, -0.307%, -13% and -8.19%.
In the same order, the values of `Cn1cc(CN2CCN(c3ccc(C#N)cn3)CC2)c(-c2ccccc2)n1` are -4.16%, -0.002%, 0.053%, -9.07% and -3.41%.
With `CN(C)C[C@@H]1CN(c2ccncn2)C[C@H]1NC(=O)COc1ccccc1`, the activity change, negative = inhibition in assay [1] is -5.09%; in assay [2], -1.09%; in assay [3], -1.58%; in assay [4] it was -2.84%; in assay [5], -2.5%.
Turning to `CC(C)C1c2cccn2CCN1C(=O)Nc1ccc(F)c(Cl)c1` (stereo not given), the activity change, negative = inhibition in assay [1] was 12.1%; in assay [2] it was 1.26%; in assay [3], 6.58%; in assay [4], 2.23%; in assay [5] it was 9.29%.
